# Publication PMC4336329 (PLoS ONE, 2015)
# Out of some 310,000 compounds screened, about 14,000 (4.5%) showed an effect of 50% or more. Effects have a minus sign here. The list shows a part of the results.
# Target: human ether-à-go-go-related gene (hERG) potassium channel (human, UniProt Q12809)
# Assay: primary screen, population patch clamp on CHO cells stably expressing hERG
# 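Note: peak tail current of the secondary pulse compared with the same well before compound.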
# Sequence of human ether-à-go-go-related gene (hERG) potassium channel (Q12809 whole entry, looked up): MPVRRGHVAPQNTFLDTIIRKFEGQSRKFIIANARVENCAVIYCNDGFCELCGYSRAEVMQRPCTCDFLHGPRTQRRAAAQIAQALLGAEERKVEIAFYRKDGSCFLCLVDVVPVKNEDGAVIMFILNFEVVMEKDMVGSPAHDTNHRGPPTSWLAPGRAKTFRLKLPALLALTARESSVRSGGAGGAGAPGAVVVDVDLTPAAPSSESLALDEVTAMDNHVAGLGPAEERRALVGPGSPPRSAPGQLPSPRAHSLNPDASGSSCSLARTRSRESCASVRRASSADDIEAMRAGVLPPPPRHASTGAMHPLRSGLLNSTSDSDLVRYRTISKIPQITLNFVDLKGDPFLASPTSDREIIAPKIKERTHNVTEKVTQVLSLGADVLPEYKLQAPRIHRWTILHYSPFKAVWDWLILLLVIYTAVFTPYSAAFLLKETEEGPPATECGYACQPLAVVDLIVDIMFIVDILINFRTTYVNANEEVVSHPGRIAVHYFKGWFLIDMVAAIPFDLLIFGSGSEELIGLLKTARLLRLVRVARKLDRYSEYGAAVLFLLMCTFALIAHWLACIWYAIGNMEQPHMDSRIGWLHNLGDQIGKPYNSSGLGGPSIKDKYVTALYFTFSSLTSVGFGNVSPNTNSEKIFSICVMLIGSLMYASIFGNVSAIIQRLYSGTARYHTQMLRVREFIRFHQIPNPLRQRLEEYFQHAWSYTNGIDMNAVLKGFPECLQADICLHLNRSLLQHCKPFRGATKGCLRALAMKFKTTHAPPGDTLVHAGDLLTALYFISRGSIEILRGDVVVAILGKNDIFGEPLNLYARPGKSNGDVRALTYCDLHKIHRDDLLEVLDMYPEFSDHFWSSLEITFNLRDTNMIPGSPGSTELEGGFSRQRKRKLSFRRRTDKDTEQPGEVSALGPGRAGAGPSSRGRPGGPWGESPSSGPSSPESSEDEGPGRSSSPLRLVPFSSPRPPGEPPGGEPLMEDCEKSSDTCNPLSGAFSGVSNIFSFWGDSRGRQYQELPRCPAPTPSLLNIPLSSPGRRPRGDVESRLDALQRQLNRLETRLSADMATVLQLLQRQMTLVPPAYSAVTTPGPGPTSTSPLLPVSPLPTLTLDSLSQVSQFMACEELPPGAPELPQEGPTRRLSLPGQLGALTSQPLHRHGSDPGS
row,SMILES,"hERG current change (%, negative = inhibition) at 10uM [%]"
1,CCOCCn1c(=O)c2c(nc3n2CC(C)CN3Cc2ccccc2)n(C)c1=O (centres unmarked),-49.5
2,O=C(Nc1ccccn1)c1ccc(Br)s1,10.5
3,Nc1nc(CSc2nc3ccccc3s2)nc(N2CCCCC2)n1,14.8
4,Cc1[nH]c(C)c(S(=O)(=O)NCCc2ccc(S(N)(=O)=O)cc2)c1C(=O)N1CCCC1,20.5
5,CC(=O)c1ccc(NC(=S)Nc2cccc3cnccc23)cc1,4.95
6,CC(=O)N1c2ccc(S(=O)(=O)N3CCC(C(=O)NC4CCCCC4)CC3)cc2CC1C (centres unmarked),15.4
7,OC(COCc1ccc(Cl)cc1)CN1CCN(CC(O)COCc2ccc(Cl)cc2)CC1 (centres unmarked),-75.2
8,CC1CN(CCc2ccccc2)c2nc3c(c(=O)n(CC(N)=O)c(=O)n3C)n2C1 (centres unmarked),2.53
9,CC(C)(C)C(=O)/C(C#N)=C/c1cccs1,7.48
10,Cc1ccccc1-c1nc(CS(=O)(=O)CC(=O)N2CCc3ccccc3C2)c(C)o1,-23.3
11,CC(=O)NCc1ccc(S(=O)(=O)N/N=C/c2ccc(Br)cc2)cc1,27.3
12,CCN(CC(=O)Nc1c(F)cccc1F)C(=O)CSCc1c(C)noc1C,13.2
13,COc1cccc(NP(=O)(Oc2ccccc2)Oc2ccccc2)c1,-11.9
14,O=C(CC(=O)Nc1ccccc1C(F)(F)F)Nc1ccccc1C(F)(F)F,9.61
15,CC(C)CC[n+]1ccccc1/C=C/c1ccc(N(C)C)cc1.[I-],-71.3
16,Cc1csc(NC(=O)CSc2nc3[nH]ncc3c(=O)[nH]2)n1,38.1
17,CS(=O)(=O)N(CC(=O)N1CCCC1)c1cccc(Cl)c1,-1.53
18,CC(/C=C/c1ccc(N(C)C)cc1)=N\N=C(/N)SC1CC(=O)N(c2ccc(C(=O)O)cc2)C1=O (centres unmarked),6.9
19,NC(=O)c1cc(N)ccc1N1CCCC1,-2.18
20,CC(=O)O.Cc1ccc2nc(N3C(=O)C(O)=C(C(=O)c4cc5ccccc5o4)C3c3cccs3)sc2c1 (centres unmarked),6.24
21,C#CCOCCOCCOCCNc1nc(N2CCN(C(=O)[C@H](CCCC[NH3+])n3cc(CCCC)nn3)CC2)nc(N2CCN(C(=O)[C@H](CCCC[NH3+])n3cc(CCC(=O)O)nn3)CC2)n1.[Cl-],17.4
22,Cc1ccc(S(=O)(=O)N2CCCCC2)cc1C(=O)NC1CC(C)(C)NC(C)(C)C1,2.27

row,SMILES,"hERG current change (%, negative = inhibition) at 10uM [%]"
1,O=C(NCCc1ccccc1)c1ccccc1[N+](=O)[O-],6.08
2,Cc1ccc(N(C)S(=O)(=O)c2cccc(C(=O)NC3CC(C)(C)NC(C)(C)C3)c2)cc1,-30.1
3,Cn1c(C(=O)OC(C(=O)NC2CCCC2)c2cccnc2)cc2sccc21 (centres unmarked),1.52
4,COCc1c(C(=O)N2CCN(Cc3ccc4c(c3)OCO4)CC2)oc2ccccc12,-40.8
5,CCOC(=O)N1CCN(c2c(NCc3ccccn3)c(=O)c2=O)CC1,11.1
6,CCCn1c(C)cc(C=O)c1C,21.9
7,CC(C)Sc1nc(N2CCOCC2)c2c(c1C#N)CC(C)(C)SC2,5.69
8,O=C(CSc1nnc(CNC(=O)c2cccs2)o1)c1ccccc1,10.6
9,O=C1/C(=C/c2ccco2)Oc2c1ccc(O)c2CN1CCCCC1,-10.5
10,Cn1c(N)c(C(=O)CSc2nc(C3CC3)n(-c3ccccc3)n2)c(=O)n(C)c1=O,-10.3
11,CCOc1ccccc1NC(=O)Nc1ccncc1,14.9
12,O=C(CCN1C(=O)S/C(=C\C=C\c2ccccc2)C1=O)Nc1ccc(O)cc1,-8.46
13,CCOCCCn1c(=S)[nH]c2cc(C(=O)N3CCC(C(N)=O)(N4CCCCC4)CC3)ccc2c1=O,-21.8
14,Br.CC1(C(=O)CSc2ncn[nH]2)CCC(=O)O1 (centres unmarked),2.21
15,Cc1ccc(Cn2cc(C=O)c(-c3ccc(F)cc3)n2)cc1,4.47
16,O=C(c1cccc(C(F)(F)F)c1)C1CCCN(Cc2ncc[nH]2)C1 (centres unmarked),0.0209
17,O=C(Nc1ccccc1C(=O)NCC1CCCO1)c1ccc(Cl)cc1 (centres unmarked),-34.8
18,CCN(CC)c1ccc(C(=O)Nc2cccc(F)c2)cc1,-18.2
19,Br.Cc1ccnc(Nc2nc(-c3ccc(Cl)cc3)cs2)c1,2.65
20,CCCCOc1ccccc1C(=O)NCCCC(=O)O,22.2
21,CCc1ccc(N(CC(=O)NCc2ccc3c(c2)OCO3)C(=O)c2csnn2)cc1,-4
22,CCOc1ccccc1NC(=O)c1ccc(S(=O)(=O)N2CCOCC2)cc1,-2.46

row,SMILES,"hERG current change (%, negative = inhibition) at 10uM [%]"
1,Cc1ccc(Nc2ccccc2)nn1,18.6
2,CCOC(=O)c1ccc(NC(=O)Nc2ccc(Cl)cn2)cc1,-7.73
3,CCOc1ccc2c(c1)C(c1ccc(C)cc1)=NNC(c1ccc(OC)cc1)=N2,-21
4,O=C(/C=C/c1ccccc1)N1CCC(N2CCC(C(=O)N3CCOCC3)CC2)CC1,-23.4
5,O=C(NCc1cc([N+](=O)[O-])ccc1O)c1cccnc1Sc1ccccc1Cl,27.4
6,Cc1cc(C)nc(SCc2nnc(SCC(=O)N3CCCc4ccccc43)n2C)n1,-10.3
7,CSc1cccc(-n2c(C)cc(C(N)=O)c2C)c1,10.6
8,COc1ccc(C(=O)OCC(=O)c2ccc(CNC(C)=O)s2)cc1,-4.56
9,O=C(Nc1ccc(F)cc1)c1nc2c(nnn2Cc2cccc3ccccc23)c(=O)[nH]1,22.1
10,CCN(CC)CCCNC(=O)/C(=C\c1cccn1C)NC(=O)c1cccs1,11.4
11,COc1ccc(-n2ncc3c(NCc4ccccn4)ncnc32)cc1,-3.05
12,CCOc1cc(C2C3=C(CCCC3=O)NC3=C2C(=O)CCC3)ccc1OCCO,11.8
13,Oc1c(Br)cc(Br)cc1/C=N/N1CCN(Cc2ccccc2)CC1,16
14,Cc1cc(-c2nnc(SCC(=O)Nc3c(C)cccc3C)n2N)n[nH]1,20.8
15,FC(F)(F)COc1ccc(-c2nnc(SCc3ccccc3)o2)cn1,8.82
16,Cc1ccccc1NC(=S)Nc1ccccn1,5.96
17,CCOC(=O)C1=C(C)Nc2nc3ccccc3n2C1c1ccncc1 (centres unmarked),-2.44
18,CCCc1nc2n[nH]c(N)c2c2c1COC(C)(C)C2,-14.8
19,COC(=O)C1=C(C)NC(C)=C(C(=O)OC)C1c1cc2cc(C)ccc2[nH]c1=O,3.11
20,C=CCOc1c(Br)cc(CNc2ccc(NC(=O)C(C)C)cc2)cc1OCC,21.5
21,COc1ccc(C(=O)/C=C/c2ccccc2F)c(OC(=O)c2ccc([N+](=O)[O-])cc2)c1,6.24
22,COc1ccc(C(=O)NN(C)c2nc(-c3ccccc3)nnc2C(F)(F)F)cc1,7

row,SMILES,"hERG current change (%, negative = inhibition) at 10uM [%]"
1,Cc1cc(C)nc(-n2c(C)nc3cc(Cl)ccc3c2=O)c1,16.8
2,CC1C(=O)Nc2ccc(S(=O)(=O)NCCc3ccc(Cl)cc3)cc2NC1=O (centres unmarked),5.99
3,CCCn1c(/C=C/c2ccco2)nc2ccccc21,0.213
4,Cc1cccc(C(=O)Nc2sc(C(=O)N3CCCC3)c(C)c2C#N)c1,5.76
5,COc1ccc(Oc2coc3cc(OC(=O)/C=C/c4ccccc4)ccc3c2=O)cc1,1.72
6,N#Cc1ccccc1OCC(=O)N1CCc2ccccc2C1,-2.7
7,COCCNC(=S)Nc1ccc(S(=O)(=O)Nc2cnc3ccccc3n2)cc1,13.5
8,Cc1cc(C)nc(N/N=C/c2c(C)oc3ccccc23)n1,7.15
9,COc1cc[n+](OC(=O)N2CCCCC2)c(C)c1.c1ccc([B-](c2ccccc2)(c2ccccc2)c2ccccc2)cc1,-5.95
10,CSc1nccc(N/N=C/c2ccccc2)n1,23.9
11,COc1ccc(OC)c(/C=N/NC(=O)CNC(=O)c2cccc3ccccc23)c1,11.2
12,O=C1C(=O)N(Cc2ccncc2)C(c2cccc(O)c2)/C1=C(\O)c1ccc2c(c1)OCCO2 (centres unmarked),23.8
13,O=C(NC1CC1)C1=C[C@@H](c2ccc(C(F)(F)F)cc2)C[C@@H](OCCCCO)O1,-5.9
14,Cc1cc(C)nc(SCC(=O)OCC(=O)Nc2ccccc2)n1,0.8
15,CCCN1C(=O)C(NC(C)=O)c2cc(OC)ccc21 (centres unmarked),21.6
16,CC1CCN(CCCNC(=O)c2cc3c(s2)-c2ccccc2OC3)CC1,-74.6
17,Cc1ccc(CN2C(=O)c3ccccc3NC2c2ccccn2)cc1 (centres unmarked),-14.4
18,Cc1ccc(C(C)C)c(OCc2nn(CC(=O)c3ccc(OC(F)F)cc3)c3[n+]2CCCCC3)c1.[Br-],-72.5
19,N#CC1=C(N)N(c2ccccc2)C2=C(C(=O)CCC2)C1c1ccsc1 (centres unmarked),-27.2
20,CCOc1cccc2sc(N(CCN(C)C)C(=O)c3cc4ccccc4cc3OC)nc12.Cl,-68.1
